Assay results as given in PubChem BioAssay AID540317 (National Center for Advancing Translational Sciences (NCATS), 2011).
About 2,200 (0.56%) of roughly 390,000 compounds were called active. Inconclusive results, whose numbers are uncertain, are shown with a selection of clear calls. The call rests on the fitted dose curve; in most records, active means well fitted inhibition curve with a large enough effect; inconclusive means small, poorly fitted or top-dose-only effect; inactive means no such curve, though single readings can be large or run the other way. Potencies beside an inconclusive call are fits to weak or partial responses and may not hold up.

target: Chromobox protein homolog 1 (Homo sapiens) (UniProt P83916); test: HTS for Inhibitors of HP1-beta Chromodomain Interactions with Methylated Histone Tails; conditions: AlphaScreen HP1-beta / biotin-H3K9me3 peptide binding; series mostly up to 114 µM; further: nearly all actives have a fitted effect of over 70% in size
Outline: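 HP1-beta protein (50 nM final) preincubated 30 min at room temperature with biotinylated H3(1-18)K9me3 peptide (50 nM) in PBS pH 7.4, 0.01% Tween-20, then compound added for 30 min. AlphaScreen streptavidin donor/nickel chelate acceptor beads (10 ug/mL final), 30 min dark, luminescence read.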
Potency means the concentration at half of the fitted maximal effect; tags describe the fitted curve by direction and shape.

UniProt P83916, sequence (P83916 whole entry, looked up): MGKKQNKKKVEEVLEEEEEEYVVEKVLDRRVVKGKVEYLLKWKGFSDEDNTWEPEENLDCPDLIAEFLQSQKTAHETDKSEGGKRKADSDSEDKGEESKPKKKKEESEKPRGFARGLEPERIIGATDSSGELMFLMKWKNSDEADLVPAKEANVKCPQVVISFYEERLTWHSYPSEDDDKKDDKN

| Compound | Potency |
| --- | --- |
| COc1ccc(NC(=O)c2oc3ccccc3c2NC(=O)c2cc(OC)c(OC)c(OC)c2)cc1 | inactive |
| COc1cc(OC)c2c(C)cc(=O)oc2c1C(CCN1CCCC(C)C1)c1ccc(N(C)C)cc1 (centres undefined) | inconclusive: 50.1 µM [inhibitor, partial curve, poor fit] |
| COc1ccc(C2=C(N3CCN(c4cc(Cl)ccc4C)CC3)c3ccccc3C2=O)cc1 | inconclusive: 4.47 µM [inhibitor, full curve] |
| NC(=O)c1cc2c3ccccc3ccn2c1-c1ccccc1 | inconclusive: 17.8 µM [inhibitor, full curve] |
| CCOC(=O)CNC(=O)CCc1nnc2ccc(N3CCC(C)CC3)nn12 | inconclusive: 31.6 µM [inhibitor, single point] |
| O=C(c1ccco1)N1CCN(C(=O)c2cnn(-c3ccc(Cl)cc3)c2C2CCNCC2)CC1 | inactive |
| COc1cnc(-c2ccccn2)nc1Oc1ccc(Cl)cc1 | inactive |
| CCOc1ccc(Br)cc1CNCCN1CCOCC1 | inactive |
| CCOC(=O)N1CCN(C2=C(NS(=O)(=O)c3ccccc3)C(=O)c3ccccc3C2=O)CC1 | inconclusive: 20 µM [inhibitor, full curve] |
| COc1ccc(CC(=S)NCCc2ccccc2)cc1 | inconclusive: 3.16 µM [inhibitor, full curve, poor fit] |
| O=C(NC(=S)NCc1cccnc1)c1cc(Br)ccc1Cl | inactive |
| O=C(/C=C/c1ccc(-c2ccccc2[N+](=O)[O-])o1)c1ccc(F)cc1 | inconclusive: 25.1 µM [inhibitor, full curve] |
| Cc1cc(C2=NNC(=NCCc3ccccc3)SC2)c(C)n1CC1CCCO1 (centres undefined) | inconclusive: 35.5 µM [inhibitor, partial curve] |
| CCOC(=O)c1cccc(NC(=O)NCc2ccc3c(c2)CCN3C(=O)CC)c1 | inactive |
| Cc1ccc(Cn2c(N/N=C/c3ccncc3)nc3c2c(=O)n(C)c(=O)n3C)cc1 | inconclusive: 89.1 µM [inhibitor, single point] |
| Cc1ccc(Cl)cc1NC(=O)Cn1cc(S(=O)(=O)Cc2ccccc2Cl)c2ccccc21 | inactive |
| CCCN(C(=O)NCc1noc2ccc(C)cc12)c1ccc(Cl)c(Cl)c1 | inactive |
| CCc1ccc(C(=O)c2cn(CC(=O)Nc3ccc(OC)c(Cl)c3)c3nc(C)ccc3c2=O)cc1 | inactive |
| O=C1CCCCCCC1Sc1ccccc1[N+](=O)[O-] (centres undefined) | inconclusive: 70.8 µM [inhibitor, partial curve] |
| Nc1nc(SCC(=O)Nc2cccnc2Cl)n[nH]1 | inactive |
| CC1CC(C)CN(CCOc2ccc(Cl)cc2Cl)C1 (centres undefined) | inconclusive: 17.8 µM [inhibitor, partial curve, poor fit] |
| COc1ccc(Nc2nc(-c3c(C)nc4ncccn34)cs2)cc1 | inactive |
| CCOC(=O)c1ccc(-n2c(N)c(C(=O)NCc3ccco3)sc2=S)cc1 | active: 15.8 µM |

| Compound | Potency |
| --- | --- |
| O=C(C1=C(Nc2ccccc2)c2ccccc2S(=O)(=O)N1)c1ccccc1 | inconclusive: 25.1 µM [inhibitor, partial curve, poor fit] |
| O=C(c1ccc(CSc2nc3ccncc3n2Cc2ccccc2F)cc1)N1CCCCC1 | inactive |
| O=C(Nc1cc(S(=O)(=O)Nc2ccc(Cl)cc2)ccc1N1CCCCC1)c1ccc(F)cc1Cl | inconclusive: 28.2 µM [inhibitor, single point] |
| O=[N+]([O-])c1ccccc1N=Nc1ccc(O)cc1O | inconclusive: 50.1 µM [inhibitor, single point] |
| CCn1c(N)c(C(=O)NCCOC)sc1=S | inconclusive: 17.8 µM [inhibitor, full curve, poor fit] |
| Cc1onc(-c2c(Cl)cccc2Cl)c1C(=O)NC1C(=O)N2C1SC(C)(C)C2C(=O)O (centres undefined) | inconclusive: 79.4 µM [inhibitor, partial curve, poor fit] |
| COc1ccc(NC(=S)N(Cc2ccc(N(C)C)cc2)Cc2ccco2)cc1 | inconclusive: 70.8 µM [inhibitor, partial curve] |
| NC(=S)NN=C1c2cc(OCCN3CCOCC3)ccc2-c2ccc(OCCN3CCOCC3)cc21 | inconclusive: 39.8 µM [inhibitor, partial curve] |
| Cc1c(C(=O)NCCN2CCOCC2)oc2ccc(Br)cc12 | inconclusive: 70.8 µM [inhibitor, partial curve] |
| NC(=O)c1ccsc1NC(=O)COc1ccccc1 | inconclusive: 28.2 µM [inhibitor, full curve] |
| O=C(c1ccc(CS(=O)c2ccccc2Cl)o1)N1CCN(c2ccccc2F)CC1 (centres undefined) | inactive |
| CC(Cc1n[nH]c(=S)n1N)c1ccccc1 (centres undefined) | inconclusive: 56.2 µM [inhibitor, partial curve] |
| COc1cc(OC)cc(C(=O)N2CCN(Cc3ccc4c(c3)OCO4)CC2)c1 | inconclusive: 28.2 µM [inhibitor, partial curve] |
| COc1ccc(S(=O)(=O)Nc2ccccc2N2CCOCC2)cc1[N+](=O)[O-] | inactive |
| CC(=O)c1ccc(Nc2ccc(-c3ccccc3C)nn2)cc1 | inactive |
| COc1ccc(C2c3ccc4ccccc4c3Oc3ncn(CCN(C)C)c(=N)c32)cc1 (centres undefined) | inactive |
| CCOC(=O)c1nn(-c2ccccc2)c(=O)cc1OCC(=O)Nc1ccccc1OCC | inactive |
| CCCCCNCC(=O)Nc1cccc(C(=O)Nc2cccc(C(F)(F)F)c2)c1 | inconclusive: 28.2 µM [inhibitor, partial curve] |
| Cc1ccc(C(=O)CC(SCC(=O)O)c2ccc([N+](=O)[O-])cc2)cc1 (centres undefined) | active: 50.1 µM |
| CC1CCN(S(=O)(=O)c2cc([N+](=O)[O-])ccc2Cl)CC1 | inconclusive: 50.1 µM [inhibitor, partial curve] |
| COc1ccc(N(CC(=O)N/N=C/c2ccc3c(c2)OCO3)S(=O)(=O)c2ccc(NC(C)=O)cc2)cc1 | inconclusive: 44.7 µM [inhibitor, partial curve] |
| C=CC[C@H]1CC(Cc2ccccc2)=C[C@H](CC=C)N1 | inconclusive: 39.8 µM [inhibitor, single point] |
| CCc1nnc(NS(=O)(=O)c2ccc(NC(=S)NC(=O)/C=C/c3ccc(C(C)C)cc3)cc2)s1 | inconclusive: 50.1 µM [inhibitor, partial curve, poor fit] |

| Compound | Potency |
| --- | --- |
| NC(=S)N=Nc1c(O)n(Cc2ccc(F)cc2)c2ccccc12 | inactive |
| Fc1ccc(C(Nc2ccc(Cl)c(C(F)(F)F)c2)c2nnc(-c3ccccc3)o2)cc1 (centres undefined) | inactive |
| COc1cc(OC)c(NC(=O)CCn2cccn2)cc1Cl | inactive |
| C=CC[C@H](CC(=O)OC(C)(C)C)C(=O)OC[C@H]1CCCN1C(=O)[C@@H](CC=C)CC(=O)N(CCO)Cc1ccccc1 | inactive |
| Cc1[nH]c2ccc(F)cc2c(=O)c1SC(F)(F)C(F)C(F)(F)F (centres undefined) | inactive |
| O=C1NC(c2ccc(-c3ccccc3[N+](=O)[O-])o2)C(C(=O)c2ccc(Cl)cc2)C(O)(C(F)(F)F)N1 (centres undefined) | inconclusive: 17.8 µM [inhibitor, full curve, poor fit] |
| COc1ccc(CCN(C)Cc2ccc(OCc3ccccc3)c(OC)c2)cc1OC | inconclusive: 10 µM [inhibitor, full curve] |
| CCN(CC)c1ccc(C(=S)NCc2ccccc2)cc1 | inconclusive: 14.1 µM [inhibitor, full curve, poor fit] |
| CCC1C/C(=C\c2cc(OC)c(OC)cc2OC)C(=O)/C(=C/c2cc(OC)c(OC)cc2OC)C1 (centres undefined) | inconclusive: 15.8 µM [inhibitor, full curve] |
| CN(C)c1ccc(C(CNC(=O)c2ccccc2F)N2CCc3ccccc32)cc1 (centres undefined) | inconclusive: 15.8 µM [inhibitor, full curve] |
| CN(C)c1ccc(N/C(=N\S(=O)(=O)c2cccs2)c2ccccc2)cc1 | inconclusive: 31.6 µM [inhibitor, full curve] |
| Cc1ccc(F)cc1NC(=O)CSc1n[nH]c(N)n1 | inactive |
| O=C(NCc1ccco1)c1c[nH]c2ccc(S(=O)(=O)Nc3ccc(F)cc3F)cc2c1=O | inconclusive: 79.4 µM [inhibitor, partial curve, poor fit] |
| O=C1CC(c2ccco2)CC(O)=C1C=Nc1cc(Cl)ccc1O (centres undefined) | inconclusive: 44.7 µM [inhibitor, partial curve] |
| COc1ccc2ccccc2c1C1CC(=O)N2CN(C3CCCCC3)CSC2=C1C#N (centres undefined) | inconclusive: 25.1 µM [inhibitor, partial curve] |
| O=[N+]([O-])c1ccccc1N=Nc1ccc(O)cc1 | inconclusive: 22.4 µM [inhibitor, partial curve, poor fit] |
| CC(=O)Nc1ccc(S(=O)(=O)N2CCN(Cc3cccnc3)CC2)cc1 | inconclusive: 17.8 µM [inhibitor, full curve] |
| O=C(NCc1ccco1)c1ccc(CS(=O)(=O)c2cccc(C(F)(F)F)c2)o1 | inconclusive: 35.5 µM [inhibitor, single point] |
| CCOC(=O)C1=C(C)NC2=C(C(=O)c3ccccc32)C1c1ccc([N+](=O)[O-])o1 (centres undefined) | active: 50.1 µM |
| COC(=O)C1CCN(C(=O)/C=C/c2ccccc2)CC1 | inconclusive: 39.8 µM [inhibitor, single point] |
| Cc1ccccc1C(=O)c1cccn1CC(=O)NCCN1CCN(c2cccc(C)c2C)CC1 | inconclusive: 15.8 µM [inhibitor, partial curve, poor fit] |
| CCCCN(Cc1cccs1)S(=O)(=O)c1ccc(-c2ccc(=O)[nH]n2)s1 | inactive |
| C#CCOCCOCCOCCNc1nc(N2CCN(C(=O)CCCCCCCCCCNC(=O)Cn3cc(C[C@@H](C)O)nn3)CC2)nc(N2CCN(C(=O)CCCCCCCCCCNC(=O)[C@H](CCCN=C(N)N)n3cc(C[C@@H](C)CC)nn3)CC2)n1 | inconclusive: 44.7 µM [inhibitor, partial curve, poor fit] |
